Laboratory results from the supplement of paper PMC10126150.
Values marked as one replicate rest on one cluster of the flow cell; about a third of the high ones do not repeat.

test system: ATP; experiment: switch fluorescence ratio, 500 uM ATP over buffer (Cy3 cluster intensity, sum of 5 cycles each) (fold (ratio)); higher = stronger signal-on switching upon ATP binding; sequences stand for … in TCGTCGGCAGCGTCAGATGTGTATAAGAGACAGTTTTTTTTTTTTTTTTTTTTTTTTT…TC; settings: aptamer strand: ATP DNA aptamer (quencher-CACCTGGGGGAGTATTGCGGAGGAAGG + anchor), 100 nM annealed; ATP concentration: 500 uM; one replicate
Summary of the method: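 Cy3-labelled switching-strand clusters on a modified Illumina MiSeq flow-cell were annealed to 100 nM quencher-labelled ATP aptamer, imaged in selection buffer, then imaged after 15 min with 500 uM ATP at 22 °C. Five buffer/ATP cycles ran, with NaOH stripping and re-annealing between them. The fluorescence ratio is summed target-cycle over summed buffer-cycle Cy3 intensity per cluster, averaged per switch-domain sequence. Clusters outside 100-1000 RFU were excluded.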
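Also: ATP exposure 15 min at 22 °C before imaging.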

Q: How did the switch fluorescence ratio turn out when GGCAGAAA was run?
A: 0.983

Q: For GGCAGAAGGT, which switch fluorescence ratio is on record?
A: 0.971

Q: How did the switch fluorescence ratio turn out when GGCAGAGACA was run?
A: 1.01

Q: For GGCAGCGATT, which switch fluorescence ratio is on record?
A: 1.05

Q: With GGCAGGAGTG as the sequence, how does the switch fluorescence ratio read?
A: 1.01

Q: Which switch fluorescence ratio does the source give for GGCAGGGGCG here?
A: 0.971

Q: With GGCAGTATTA as the sequence, how does the switch fluorescence ratio read?
A: 0.987

Q: With GGCATAAAAC as the sequence, how does the switch fluorescence ratio read?
A: 1.1

Q: GGCATAAGCG was tested. Which switch fluorescence ratio did it give?
A: 0.988

Q: How did the switch fluorescence ratio turn out when GGCATAATAG was run?
A: 1.06

Q: How did the switch fluorescence ratio turn out when GGCATACCAG was run?
A: 1.02

Q: With GGCATAGTAC as the sequence, how does the switch fluorescence ratio read?
A: 1.15

Q: With GGCATCTCAT as the sequence, how does the switch fluorescence ratio read?
A: 1.01

Q: For GGCATGGTT, which switch fluorescence ratio is on record?
A: 1.05

Q: For GGCATGTCCA, which switch fluorescence ratio is on record?
A: 1.04

Q: With GGCATTGCAG as the sequence, how does the switch fluorescence ratio read?
A: 1.01

Q: Which switch fluorescence ratio does the source give for GGCCAAAGAA here?
A: 1.04

Q: GGCCAAGGG was tested. Which switch fluorescence ratio did it give?
A: 1.01

Q: For GGCCAATA, which switch fluorescence ratio is on record?
A: 1.03

Q: How did the switch fluorescence ratio turn out when GGCCACGTCA was run?
A: 1.07

Q: Which switch fluorescence ratio does the source give for GGCCACTGAA here?
A: 1.01

Q: With GGCCAGAAAA as the sequence, how does the switch fluorescence ratio read?
A: 1

Q: With GGCCAGCTGG as the sequence, how does the switch fluorescence ratio read?
A: 1.04

Q: GGCCAGGGGC was tested. Which switch fluorescence ratio did it give?
A: 1.05

Q: How did the switch fluorescence ratio turn out when GGCCAGTTGT was run?
A: 1.04

Q: For GGCCATGTCT, which switch fluorescence ratio is on record?
A: 0.973

Q: For GGCCATTGAG, which switch fluorescence ratio is on record?
A: 0.983

Q: Which switch fluorescence ratio does the source give for GGCCCAATAG here?
A: 1.96

Q: Which switch fluorescence ratio does the source give for GGCCCACTGG here?
A: 1.06

Q: With GGCCCATTC as the sequence, how does the switch fluorescence ratio read?
A: 1.06

Q: GGCCCCAGAG was tested. Which switch fluorescence ratio did it give?
A: 1.72

Q: For GGCCCCTCCT, which switch fluorescence ratio is on record?
A: 1.06

Q: For GGCCCGTACG, which switch fluorescence ratio is on record?
A: 1.01

Q: With GGCCCTACTT as the sequence, how does the switch fluorescence ratio read?
A: 1.01

Q: How did the switch fluorescence ratio turn out when GGCCGACGGG was run?
A: 1.03

Q: GGCCGGCAAT was tested. Which switch fluorescence ratio did it give?
A: 1.1

Q: For GGCCGTCGTC, which switch fluorescence ratio is on record?
A: 0.979

Q: How did the switch fluorescence ratio turn out when GGCCTACTTA was run?
A: 1.04

Q: GGCCTCGCTA was tested. Which switch fluorescence ratio did it give?
A: 1.09

Q: With GGCCTGAGGA as the sequence, how does the switch fluorescence ratio read?
A: 1.01

Q: How did the switch fluorescence ratio turn out when GGCCTGGGAA was run?
A: 1.04

Q: For GGCCTGGGAT, which switch fluorescence ratio is on record?
A: 1

Q: With GGCCTTAGCT as the sequence, how does the switch fluorescence ratio read?
A: 1.02

Q: GGCCTTATGT was tested. Which switch fluorescence ratio did it give?
A: 0.978

Q: How did the switch fluorescence ratio turn out when GGCCTTCACC was run?
A: 1.1

Q: With GGCGAACTTG as the sequence, how does the switch fluorescence ratio read?
A: 0.969

Q: Which switch fluorescence ratio does the source give for GGCGAATTA here?
A: 0.972

Q: How did the switch fluorescence ratio turn out when GGCGACAGGG was run?
A: 0.997

Q: For GGCGAGACGA, which switch fluorescence ratio is on record?
A: 1.06

Q: GGCGAGGTGC was tested. Which switch fluorescence ratio did it give?
A: 0.993

Q: For GGCGAGTATT, which switch fluorescence ratio is on record?
A: 1.01

Q: With GGCGAGTGGG as the sequence, how does the switch fluorescence ratio read?
A: 0.991

Q: Which switch fluorescence ratio does the source give for GGCGAGTTGC here?
A: 0.99

Q: GGCGATTACG was tested. Which switch fluorescence ratio did it give?
A: 1.03

Q: How did the switch fluorescence ratio turn out when GGCGATTTTC was run?
A: 0.976

Q: For GGCGCACAAG, which switch fluorescence ratio is on record?
A: 1.03

Q: GGCGCAGTCT was tested. Which switch fluorescence ratio did it give?
A: 0.939

Q: GGCGCATGGT was tested. Which switch fluorescence ratio did it give?
A: 1.02

Q: With GGCGCCGTCT as the sequence, how does the switch fluorescence ratio read?
A: 0.946

Q: How did the switch fluorescence ratio turn out when GGCGCGCGTA was run?
A: 1.05

Q: How did the switch fluorescence ratio turn out when GGCGCGGTCG was run?
A: 0.923

Q: Which switch fluorescence ratio does the source give for GGCGCTGCCG here?
A: 1.03

Q: For GGCGGAAGAG, which switch fluorescence ratio is on record?
A: 1.04

Q: How did the switch fluorescence ratio turn out when GGCGGAGGGC was run?
A: 0.945

Q: For GGCGGATCTT, which switch fluorescence ratio is on record?
A: 1

Q: For GGCGGCGCCT, which switch fluorescence ratio is on record?
A: 0.975

Q: How did the switch fluorescence ratio turn out when GGCGGGAAT was run?
A: 0.953

Q: For GGCGGGATGA, which switch fluorescence ratio is on record?
A: 1.02

Q: Which switch fluorescence ratio does the source give for GGCGGGGGG here?
A: 1.04

Q: For GGCGGTACGA, which switch fluorescence ratio is on record?
A: 1.02

Q: For GGCGGTTAAC, which switch fluorescence ratio is on record?
A: 1.29

Q: Which switch fluorescence ratio does the source give for GGCGGTTATC here?
A: 0.993

Q: For GGCGGTTGTT, which switch fluorescence ratio is on record?
A: 0.99

Q: How did the switch fluorescence ratio turn out when GGCGTAAAGG was run?
A: 1.01

Q: Which switch fluorescence ratio does the source give for GGCGTAAGGT here?
A: 0.997

Q: Which switch fluorescence ratio does the source give for GGCGTAGCG here?
A: 1.01

Q: For GGCGTCCAAA, which switch fluorescence ratio is on record?
A: 1.01

Q: GGCGTGAAGG was tested. Which switch fluorescence ratio did it give?
A: 1.03

Q: With GGCGTGGGGC as the sequence, how does the switch fluorescence ratio read?
A: 1.05

Q: Which switch fluorescence ratio does the source give for GGCGTGTACC here?
A: 1.02

Q: Which switch fluorescence ratio does the source give for GGCGTGTCCC here?
A: 1.09

Q: With GGCGTGTTCT as the sequence, how does the switch fluorescence ratio read?
A: 0.982

Q: With GGCGTTGGCG as the sequence, how does the switch fluorescence ratio read?
A: 1.03

Q: How did the switch fluorescence ratio turn out when GGCTAAAACG was run?
A: 1.03

Q: GGCTAAATT was tested. Which switch fluorescence ratio did it give?
A: 1.01

Q: GGCTAAGCT was tested. Which switch fluorescence ratio did it give?
A: 1

Q: Which switch fluorescence ratio does the source give for GGCTACTCAA here?
A: 1.09

Q: With GGCTAGACTG as the sequence, how does the switch fluorescence ratio read?
A: 0.938

Q: For GGCTAGTG, which switch fluorescence ratio is on record?
A: 1.03

Q: GGCTATTACA was tested. Which switch fluorescence ratio did it give?
A: 1.02

Q: With GGCTCAAG as the sequence, how does the switch fluorescence ratio read?
A: 1.01

Q: Which switch fluorescence ratio does the source give for GGCTCAGACA here?
A: 1.01

Q: Which switch fluorescence ratio does the source give for GGCTCTAGGC here?
A: 1.03

Q: How did the switch fluorescence ratio turn out when GGCTCTCCGG was run?
A: 1.05

Q: How did the switch fluorescence ratio turn out when GGCTCTGCGT was run?
A: 1.08

Q: For GGCTCTTTTT, which switch fluorescence ratio is on record?
A: 1.01

Q: GGCTGAACGG was tested. Which switch fluorescence ratio did it give?
A: 1.02

Q: GGCTGACTCC was tested. Which switch fluorescence ratio did it give?
A: 2.56

Q: Which switch fluorescence ratio does the source give for GGCTGCTCAG here?
A: 1.01

Q: GGCTGGGGGC was tested. Which switch fluorescence ratio did it give?
A: 1.03

Q: With GGCTGGT as the sequence, how does the switch fluorescence ratio read?
A: 0.994
